Data taken from the supplement of paper PMC8728848.
This is one part of the list.

Tests used:
Experiment in all cases: glycan array binding signal (z-score within array); higher = stronger binding
Details in all cases: glycan notation: IUPAC condensed, linker removed
[1] = molecular target: Neu5Ac(a2-3)Gal(b1-3)GalNAc6S
Procedure, shortened: (§1)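 Glycan array data came from 3228 arrays in the Consortium for Functional Glycomics database, and only arrays with an available protein sequence were kept. Glycan names were put into IUPAC-condensed notation, and columns mapping to the same glycan were averaged. The binding signal is a within-array Z-score, averaged across arrays of one protein sequence run at different concentrations or buffers and across linkers. A negative Z-score can be read as non-binding.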

[2] = molecular target: Neu5Ac(a2-3)Gal(b1-3)GlcNAc
Procedure, shortened: as §1

[3] = molecular target: Neu5Ac(a2-3)Gal(b1-3)GlcNAc(b1-3)Gal(b1-3)GlcNAc
Procedure, shortened: as §1

[4] = molecular target: Neu5Ac(a2-3)Gal(b1-3)GlcNAc(b1-3)Gal(b1-4)GlcNAc
Procedure, shortened: as §1

[5] = molecular target: Neu5Ac(a2-3)Gal(b1-3)GlcNAc(b1-3)GalNAc
Procedure, shortened: as §1

[6] = molecular target: Neu5Ac(a2-3)Gal(b1-3)GlcNAc6S
Procedure, shortened: as §1

[7] = molecular target: Neu5Ac(a2-3)Gal(b1-3)[Fuc(a1-4)]GlcNAc
Procedure, shortened: as §1

[8] = molecular target: Neu5Ac(a2-3)Gal(b1-3)[Fuc(a1-4)]GlcNAc(b1-3)Gal(b1-3)[Fuc(a1-4)]GlcNAc
Procedure, shortened: as §1

[9] = molecular target: Neu5Ac(a2-3)Gal(b1-3)[Fuc(a1-4)]GlcNAc(b1-3)Gal(b1-4)[Fuc(a1-3)]GlcNAc
Procedure, shortened: as §1

[10] = molecular target: Neu5Ac(a2-3)Gal(b1-3)[Neu5Ac(a2-3)Gal(b1-4)]GlcNAc
Procedure, shortened: as §1

[11] = molecular target: Neu5Ac(a2-3)Gal(b1-3)[Neu5Ac(a2-6)]GalNAc
Procedure, shortened: as §1

Neu5Ac(a2-3)Gal(b1-4)Glc = molecular target: Neu5Ac(a2-3)Gal(b1-4)Glc
Procedure, shortened: as §1

[12] = molecular target: Neu5Ac(a2-3)Gal(b1-4)GlcNAc
Procedure, shortened: as §1

[13] = molecular target: Neu5Ac(a2-3)Gal(b1-4)GlcNAc(b1-2)Man(a1-3)[GlcNAc(b1-2)Man(b1-4)GlcNAc(b1-2)Man(a1-6)]Man(b1-4)GlcNAc(b1-4)GlcNAc
Procedure, shortened: as §1

[14] = molecular target: Neu5Ac(a2-3)Gal(b1-4)GlcNAc(b1-2)Man(a1-3)[Neu5Ac(a2-6)Gal(b1-4)GlcNAc(b1-2)Man(a1-6)]Man(b1-4)GlcNAc(b1-4)GlcNAc
Procedure, shortened: as §1

[15] = molecular target: Neu5Ac(a2-3)Gal(b1-4)GlcNAc(b1-3)Gal
Procedure, shortened: as §1

[16] = molecular target: Neu5Ac(a2-3)Gal(b1-4)GlcNAc(b1-3)Gal(b1-3)GlcNAc
Procedure, shortened: as §1

[17] = molecular target: Neu5Ac(a2-3)Gal(b1-4)GlcNAc(b1-3)Gal(b1-4)GlcNAc
Procedure, shortened: as §1

[18] = molecular target: Neu5Ac(a2-3)Gal(b1-4)GlcNAc(b1-3)Gal(b1-4)GlcNAc(b1-3)Gal(b1-4)GlcNAc
Procedure, shortened: as §1

[19] = molecular target: Neu5Ac(a2-3)Gal(b1-4)GlcNAc(b1-3)Gal(b1-4)[Fuc(a1-3)]GlcNAc
Procedure, shortened: as §1

[20] = molecular target: Neu5Ac(a2-3)Gal(b1-4)GlcNAc(b1-3)GalNAc
Procedure, shortened: as §1

[21] = molecular target: Neu5Ac(a2-3)Gal(b1-4)GlcNAc(b1-6)[Gal(b1-3)]GalNAc
Procedure, shortened: as §1

[22] = molecular target: Neu5Ac(a2-3)Gal(b1-4)GlcNAc(b1-6)[Neu5Ac(a2-3)Gal(b1-3)]GalNAc
Procedure, shortened: as §1

[23] = molecular target: Neu5Ac(a2-3)Gal(b1-4)GlcNAc6S
Procedure, shortened: as §1

[24] = molecular target: Neu5Ac(a2-3)Gal(b1-4)[Fuc(a1-3)]GlcNAc
Procedure, shortened: as §1

[25] = molecular target: Neu5Ac(a2-3)Gal(b1-4)[Fuc(a1-3)]GlcNAc(b1-3)Gal
Procedure, shortened: as §1

[26] = molecular target: Neu5Ac(a2-3)Gal(b1-4)[Fuc(a1-3)]GlcNAc(b1-3)Gal(b1-4)GlcNAc
Procedure, shortened: as §1

[27] = molecular target: Neu5Ac(a2-3)Gal(b1-4)[Fuc(a1-3)]GlcNAc(b1-3)Gal(b1-4)[Fuc(a1-3)]GlcNAc(b1-3)Gal(b1-4)[Fuc(a1-3)]GlcNAc
Procedure, shortened: as §1

[28] = molecular target: Neu5Ac(a2-3)Gal(b1-4)[Fuc(a1-3)]GlcNAc(b1-3)GalNAc
Procedure, shortened: as §1

[29] = molecular target: Neu5Ac(a2-3)Gal(b1-4)[Fuc(a1-3)]GlcNAc(b1-6)[Gal(b1-3)]GalNAc
Procedure, shortened: as §1

[30] = molecular target: Neu5Ac(a2-3)Gal(b1-4)[Fuc(a1-3)]GlcNAc6S
Procedure, shortened: as §1

[31] = molecular target: Neu5Ac(a2-3)Gal6S(b1-4)GlcNAc
Procedure, shortened: as §1

[32] = molecular target: Neu5Ac(a2-3)Gal6S(b1-4)[Fuc(a1-3)]GlcNAc
Procedure, shortened: as §1

Neu5Ac(a2-3)GalNAc = molecular target: Neu5Ac(a2-3)GalNAc
Procedure, shortened: as §1

[33] = molecular target: Neu5Ac(a2-3)GalNAc(b1-4)GlcNAc
Procedure, shortened: as §1

[34] = molecular target: Neu5Ac(a2-3)[GalNAc(b1-4)]Gal(b1-4)Glc
Procedure, shortened: as §1

[35] = molecular target: Neu5Ac(a2-3)[GalNAc(b1-4)]Gal(b1-4)GlcNAc
Procedure, shortened: as §1

[36] = molecular target: Neu5Ac(a2-3)[GalNAc(b1-4)]Gal(b1-4)GlcNAc(b1-3)GalNAc
Procedure, shortened: as §1

[37] = molecular target: Neu5Ac(a2-3)[Neu5Ac(a2-6)]GalNAc
Procedure, shortened: as §1

Neu5Ac(a2-6)Gal = molecular target: Neu5Ac(a2-6)Gal
Procedure, shortened: as §1

[38] = molecular target: Neu5Ac(a2-6)Gal(b1-3)GlcNAc(b1-3)[Gal(b1-4)GlcNAc(b1-6)]Gal(b1-4)Glc
Procedure, shortened: as §1

Neu5Ac(a2-6)Gal(b1-4)Glc = molecular target: Neu5Ac(a2-6)Gal(b1-4)Glc
Procedure, shortened: as §1

[39] = molecular target: Neu5Ac(a2-6)Gal(b1-4)GlcNAc
Procedure, shortened: as §1

[40] = molecular target: Neu5Ac(a2-6)Gal(b1-4)GlcNAc(b1-2)Man(a1-3)Man(b1-4)GlcNAc(b1-4)GlcNAc
Procedure, shortened: as §1

[41] = molecular target: Neu5Ac(a2-6)Gal(b1-4)GlcNAc(b1-2)Man(a1-3)[Gal(b1-4)GlcNAc(b1-2)Man(a1-6)]Man(b1-4)GlcNAc(b1-4)GlcNAc
Procedure, shortened: as §1

B1: GNAT (Pseudomonas aeruginosa), Q9HV14 (protein)
chain: MQLSHRPAETGDLETVAGFPQDRDELFYCYPKAIWPFSVAQLAAAIAERRGSTVAVHDGQVLGFANFYQWQHGDFCALGNMMVAPAARGLGVARYLIGVMENLAREQYKARLMKISCFNANAAGLLLYTQLGYQPRAIAERHDPDGRRVALIQMDKPLEP
**Q.** B1 was tested. Which “glycan array binding signal (z-score)” value [1] did it give?
**A.** -0.233

**Q.** What about the “glycan array binding signal (z-score)” value [2] of the same binder?
**A.** -0.433

**Q.** What about the “glycan array binding signal (z-score)” value [3] of the same binder?
**A.** 0.004

**Q.** And the “glycan array binding signal (z-score)” value [4]?
**A.** -0.398

**Q.** What about the “glycan array binding signal (z-score)” value [5] of the same binder?
**A.** -0.316

**Q.** And the “glycan array binding signal (z-score)” value [6]?
**A.** -0.165

**Q.** What about the “glycan array binding signal (z-score)” value [7] of the same binder?
**A.** -0.3

**Q.** What about the “glycan array binding signal (z-score)” value [8] of the same binder?
**A.** -0.252

**Q.** And the “glycan array binding signal (z-score)” value [9]?
**A.** -0.219

**Q.** What about the “glycan array binding signal (z-score)” value [10] of the same binder?
**A.** -0.37

**Q.** And the “glycan array binding signal (z-score)” value [11]?
**A.** -0.082

**Q.** What about the “glycan array binding signal (z-score)” value (Neu5Ac(a2-3)Gal(b1-4)Glc) of the same binder?
**A.** -0.193

**Q.** And the “glycan array binding signal (z-score)” value [12]?
**A.** -0.448

**Q.** And the “glycan array binding signal (z-score)” value [13]?
**A.** -0.392

**Q.** What about the “glycan array binding signal (z-score)” value [14] of the same binder?
**A.** -0.292

**Q.** What about the “glycan array binding signal (z-score)” value [15] of the same binder?
**A.** -0.403

**Q.** And the “glycan array binding signal (z-score)” value [16]?
**A.** -0.457

**Q.** And the “glycan array binding signal (z-score)” value [17]?
**A.** -0.349

**Q.** What about the “glycan array binding signal (z-score)” value [18] of the same binder?
**A.** -0.394

**Q.** And the “glycan array binding signal (z-score)” value [19]?
**A.** -0.235

**Q.** What about the “glycan array binding signal (z-score)” value [20] of the same binder?
**A.** -0.374

**Q.** What about the “glycan array binding signal (z-score)” value [21] of the same binder?
**A.** -0.355

**Q.** And the “glycan array binding signal (z-score)” value [22]?
**A.** -0.097

**Q.** What about the “glycan array binding signal (z-score)” value [23] of the same binder?
**A.** -0.348

**Q.** What about the “glycan array binding signal (z-score)” value [24] of the same binder?
**A.** -0.269

**Q.** And the “glycan array binding signal (z-score)” value [25]?
**A.** -0.379

**Q.** What about the “glycan array binding signal (z-score)” value [26] of the same binder?
**A.** 1.69

**Q.** What about the “glycan array binding signal (z-score)” value [27] of the same binder?
**A.** -0.195

**Q.** What about the “glycan array binding signal (z-score)” value [28] of the same binder?
**A.** 2.77

**Q.** What about the “glycan array binding signal (z-score)” value [29] of the same binder?
**A.** 5.03

**Q.** And the “glycan array binding signal (z-score)” value [30]?
**A.** -0.383

**Q.** And the “glycan array binding signal (z-score)” value [31]?
**A.** -0.468

**Q.** And the “glycan array binding signal (z-score)” value [32]?
**A.** -0.485

**Q.** What about the “glycan array binding signal (z-score)” value (Neu5Ac(a2-3)GalNAc) of the same binder?
**A.** -0.47

**Q.** What about the “glycan array binding signal (z-score)” value [33] of the same binder?
**A.** -0.348

**Q.** And the “glycan array binding signal (z-score)” value [34]?
**A.** -0.393

**Q.** And the “glycan array binding signal (z-score)” value [35]?
**A.** -0.409

**Q.** And the “glycan array binding signal (z-score)” value [36]?
**A.** 0.442

**Q.** What about the “glycan array binding signal (z-score)” value [37] of the same binder?
**A.** -0.405

**Q.** What about the “glycan array binding signal (z-score)” value (Neu5Ac(a2-6)Gal) of the same binder?
**A.** -0.463

**Q.** And the “glycan array binding signal (z-score)” value [38]?
**A.** 1.03

**Q.** And the “glycan array binding signal (z-score)” value (Neu5Ac(a2-6)Gal(b1-4)Glc)?
**A.** -0.431

**Q.** And the “glycan array binding signal (z-score)” value [39]?
**A.** -0.351

**Q.** What about the “glycan array binding signal (z-score)” value [40] of the same binder?
**A.** -0.341

**Q.** And the “glycan array binding signal (z-score)” value [41]?
**A.** 1.05
